Test results reported in publication PMC7054686.
Results are given in words; binding and its absence hold for the method and conditions named. Binding seen in cells or lysates may run through a third protein. Some entries that bind do so weakly or less than the wild type.

Sequences of proteins named here, by UniProt entry; tags and fusion partners are left off. A change or cut given only in a name is not applied to a line headed by its entry. Residues count along the entry.
UniProt O14763, residues 56-440: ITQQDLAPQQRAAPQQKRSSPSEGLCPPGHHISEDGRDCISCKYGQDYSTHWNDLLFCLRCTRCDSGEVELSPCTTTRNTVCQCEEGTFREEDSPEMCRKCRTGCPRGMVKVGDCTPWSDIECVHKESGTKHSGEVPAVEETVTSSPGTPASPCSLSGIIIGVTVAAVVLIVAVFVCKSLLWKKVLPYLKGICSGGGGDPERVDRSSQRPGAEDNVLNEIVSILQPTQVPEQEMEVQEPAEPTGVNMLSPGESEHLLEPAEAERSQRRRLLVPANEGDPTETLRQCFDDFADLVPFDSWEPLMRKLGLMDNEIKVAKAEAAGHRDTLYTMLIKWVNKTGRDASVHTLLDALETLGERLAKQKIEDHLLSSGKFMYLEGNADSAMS

What was measured:
[1] = target: TRAIL‐R2 (human (endogenous in A549, HCT116, DU145, PC3, U20S, HAP1)) (UniProt O14763); assay: co-IP; TRAIL-R2 DISC IP with AMG655 beads (4×) in CASP8 null cells (A549 30, 60, 180 min; HCT116 CASP8 and CASP8/10 null 90 min; U20S clones)
[2] = target: TRAIL‐R2 (human (endogenous in A549, HCT116, DU145, PC3, U20S, HAP1)) (UniProt O14763); assay: co-IP; TRAIL-R2 DISC IP: 75 μl Dynabeads coated with AMG655 (anti-TRAIL-R2; 1×, 2× or 4×) added to 5 × 10^6 cells for the indicated time (30-180 min, HAP1 up to 9 h); lysis in DISC IP buffer (0.2% NP-40, 20 mM Tris-HCl pH 7.4, 150 mM NaCl, 10% glycerol), five washes, Western blot; also after zVAD-fmk, caspase-8 or FLIP siRNA, MS-275, CASP10 or CFLAR knock-out

binding [1]: binds weakly
binding [2]: binds
B1: procaspase‐10 (enzyme, UniProt Q92851 1-521)
chain: MKSQGQHWYSSSDKNCKVSFREKLLIIDSNLGVQDVENLKFLCIGLVPNKKLEKSSSASDVFEHLLAEDLLSEEDPFFLAELLYIIRQKKLLQHLNCTKEEVERLLPTRQRVSLFRNLLYELSEGIDSENLKDMIFLLKDSLPKTEMTSLSFLAFLEKQGKIDEDNLTCLEDLCKTVVPKLLRNIEKYKREKAIQIVTPPVDKEAESYQGEEELVSQTDVKTFLEALPQESWQNKHAGSNGNRATNGAPSLVSRGMQGASANTLNSETSTKRAAVYRMNRNHRGLCVIVNNHSFTSLKDRQGTHKDAEILSHVFQWLGFTVHIHNNVTKVEMEMVLQKQKCNPAHADGDCFVFCILTHGRFGAVYSSDEALIPIREIMSHFTALQCPRLAEKPKLFFIQACQGEEIQPSVSIEADALNPEQAPTSLQDSIPAEADFLLGLATVPGYVSFRHVEEGSWYIQSLCNHLKKLVPRMLKFLEKTMEIRGRKRTVWGAKQISATSLPTAISAQTPRPPMRRWSSVS
